Laboratory results: PubChem BioAssay AID485294 (National Center for Advancing Translational Sciences (NCATS), 2010)
The campaign covered roughly 370,000 compounds. About 150 (0.041%) were called active. The shares of active, inactive and inconclusive entries below differ from those in the screen. Calls follow the shape of the dose curve; as a rule, active = well fitted inhibition curve with a large enough effect; inconclusive = small, poorly fitted or top-dose-only effect; inactive = flat fitted curve, though single readings scatter. Potencies of inconclusive entries are left out as doubtful fits.

What follows are compounds tested against Beta-lactamase (Escherichia coli (strain K12)) (UniProt P00811) (assay: qHTS Inhibitors of AmpC Beta-Lactamase (assay with detergent)). Conditions: AmpC hydrolysis of nitrocefin, absorbance 480 nm, 0.01% Triton; series mostly up to 114 µM.
Sequence of UniProt P00811 (P00811 whole entry, looked up): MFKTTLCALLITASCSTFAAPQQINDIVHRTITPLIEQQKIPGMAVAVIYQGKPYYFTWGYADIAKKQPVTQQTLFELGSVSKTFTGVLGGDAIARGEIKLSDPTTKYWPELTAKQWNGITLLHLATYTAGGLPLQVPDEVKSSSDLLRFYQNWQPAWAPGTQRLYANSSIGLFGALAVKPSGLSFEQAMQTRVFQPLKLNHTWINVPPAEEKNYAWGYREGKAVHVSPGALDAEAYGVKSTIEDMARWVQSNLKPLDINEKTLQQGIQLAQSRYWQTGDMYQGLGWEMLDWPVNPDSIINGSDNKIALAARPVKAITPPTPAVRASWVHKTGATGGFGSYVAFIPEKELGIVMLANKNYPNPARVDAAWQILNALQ
How it was run: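 20 mM phosphate pH 7.0 + 0.01% (detergent screen) or 0.0001% Triton X-100; 5.3 nM AmpC reagent; cpd preinc 15 min RT; nitrocefin (800 uM stock) to start; A480 q20 s × 4 min; Activity was normalised to no-enzyme and no-compound control wells.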
Also: nearly all actives have a fitted effect of over 25% in size.
Potency is read from the fitted curve at half-maximal effect; tags tell the direction and shape of the fitted curve.

| Compound | Potency |
| --- | --- |
| Cc1ccc(/C([O-])=C(/C(=S)NCc2ccco2)[n+]2ccccc2)cc1[N+](=O)[O-] | inconclusive [inhibitor, partial curve, poor fit] |
| Cc1ccc(OCC(=O)NCc2cccs2)cc1 | inactive |
| COc1ccc(NC(=S)N(CCCN2CCOCC2)Cc2cn(C)c3ccccc23)cc1 | inconclusive [inhibitor, full curve] |
| CC(Cc1ccccc1)C(=O)N1CCN(C)CC1 (centres undefined) | inconclusive [inhibitor, partial curve, poor fit] |
| Nn1cc(-c2ccccc2)nc1SCC(=O)NCC1CCCO1 (centres undefined) | inactive |
| O=C(NCCO)c1cc2c([nH]c3ccccc32)c(-c2ccc(F)cc2)n1 | inactive |
| O=C(c1ccc2snnc2c1)N1CCN(c2ccccn2)CC1 | inconclusive [inhibitor, full curve, poor fit] |
| CC(C)C1CC(c2csc(N)n2)CCO1 (centres undefined) | inconclusive [inhibitor, full curve] |
| O=C(c1cn(Cc2ccccc2)nc1-c1cccnc1)N1CCc2ccccc2C1 | inactive |
| CC(OC(=O)c1cc(-c2cccnc2)nc2ccccc12)C(=O)Nc1ccc2ccccc2c1 (centres undefined) | inconclusive [inhibitor, full curve, poor fit] |
| O=C(Nc1cnc2ccccc2c1)c1ccncc1 | inactive |
| O=C1CC(N2CCN(C/C=C/c3ccccc3)CC2)C(=O)N1Cc1cccs1 (centres undefined) | inconclusive [inhibitor, partial curve] |
| CN(C)c1ccc(C(CNC(=O)c2ccco2)N2CCCC2)cc1 (centres undefined) | inconclusive [inhibitor, partial curve] |
| Cc1cc(C(F)(F)F)c2c(=O)[nH]c(=O)n(Cc3ccccc3)c2n1 | inactive |
| CCC(C)[C@H](NC(=O)NCc1ccc(S(N)(=O)=O)cc1)C(=O)OC (some centres undefined) | inconclusive [inhibitor, single point] |
| COC(=O)c1c(C(=O)OC)c(-c2cccc(C)c2)n2c1CS(=O)(=O)C2 | inconclusive [inhibitor, full curve, poor fit] |
| COc1ccc2c(c1)c1c(c(=O)n(-c3ccccc3)c(=O)n1CC(=O)Nc1ccc(C)c(C)c1)n2C | inactive |
| CCCOP(=O)(c1ccc(N(C)C)cc1)C(Nc1ccccc1)c1ccc(N(C)C)cc1 (centres undefined) | inactive |
| N#Cc1cn(-c2ccccc2)nc1-c1ccco1 | inconclusive [inhibitor, partial curve, poor fit] |
| CCc1ccc(CN2CCN(c3ncccn3)CC2)cc1 | inconclusive [inhibitor, single point] |
| COc1ccc(C2c3ccc4ccccc4c3Oc3ncn(CCN4CCOCC4)c(=N)c32)cc1OC (centres undefined) | inactive |
| CCOC(=O)C(Cc1ccc(OC)c([N+](=O)[O-])c1)NC(=O)CCC(=O)Nc1ccc(C)cc1 (centres undefined) | inactive |

| Compound | Potency |
| --- | --- |
| CCc1ccc(C(=O)c2cn(CC(=O)Nc3ccc(C)c(C)c3)c3ccccc3c2=O)cc1 | inconclusive [inhibitor, full curve, poor fit] |
| Cc1nnc(SCCn2c(N3CCCC(C)C3)nc3c2c(=O)n(C)c(=O)n3C)s1 (centres undefined) | inconclusive [inhibitor, full curve, poor fit] |
| Cc1ccc2c(c1)cc1c(=O)n(CC(=O)N3CCCCC3)nc(C)n12 | inactive |
| CCN1C(=O)/C(=C/C=C2\N(CC)c3cc(S(=O)(=O)N(C)C)ccc3N2c2ccccc2)SC1=S | inactive |
| O=C(C(Cc1ccccc1)n1cccc1)N1CCN(c2ccccc2)CC1 (centres undefined) | inconclusive [inhibitor, partial curve, poor fit] |
| Cc1cccc(N2C(=O)CC(Sc3nnc(C)s3)C2=O)c1 (centres undefined) | inactive |
| CC(C)(C)CC(=O)NC1CC(=O)N(c2ccc3c(c2)OCCO3)C1 (centres undefined) | inactive |
| CCCNC(=O)c1ccccc1C(=O)NC1(C(=O)NCCC)CCCC1 | inactive |
| Cc1cc(NC(=O)CCC(=O)N(CC(C)C)C(C(=O)NC(C)(C)C)c2ccccc2Cl)no1 (centres undefined) | inconclusive [inhibitor, partial curve] |
| CCCCCCCCOC(=O)c1ccc(N)cc1 | inconclusive [inhibitor, partial curve, poor fit] |
| CN(CC(=O)NCCc1ccccc1)S(=O)(=O)c1cccs1 | inconclusive [inhibitor, single point] |
| CCCOc1ccc(-c2nnc(-c3ccncc3)o2)cc1 | inconclusive [inhibitor, full curve, poor fit] |
| COc1ccc(-n2nc3c(c2NC(=O)C2CC2)CS(=O)C3)cc1 (centres undefined) | inconclusive [inhibitor, full curve, poor fit] |
| COc1ccc(NS(=O)(=O)c2cc(NC(=O)/C=C/c3cc(OC)c(OC)c(OC)c3)ccc2N2CCCCC2)cc1 | inconclusive [inhibitor, partial curve] |
| O=C(CN1CCN(Cc2ccccc2Cl)C1=O)NCC1CCCO1 (centres undefined) | inconclusive [inhibitor, full curve, poor fit] |
| O=C(N/N=C/c1cccc2ccccc12)c1cc(C2CC2)[nH]n1 | inactive |
| Cc1cc(C)cc(N(C(C)C(=O)NCc2ccc3c(c2)OCO3)S(C)(=O)=O)c1 (centres undefined) | inconclusive [inhibitor, full curve, poor fit] |
| OC[C@H]1O[C@@H](Oc2cc(O)cc(/C=C/c3ccc(O)cc3)c2)[C@H](O)[C@@H](O)[C@@H]1O | inactive |
| O=C(Oc1cccc(F)c1)c1ccc2c(=O)n3c(nc2c1)CCC3 | inconclusive [inhibitor, partial curve] |
| O=C1C2C(c3ccccc3)C=CC(c3ccccc3)C2C(=O)N1CCCO (centres undefined) | inactive |
| CCOc1cc2nc(-c3ccc(OC)c(OC)c3)nc(N3CC(C)OC(C)C3)c2cc1OC (centres undefined) | inconclusive [inhibitor, full curve, poor fit] |
| COc1cc(C(F)(F)F)c(C(=O)NCc2cccc(Cl)c2)cn1 | inconclusive [inhibitor, single point] |
